According to article PMC4336329 (PLoS ONE, 2015):
The whole screen tested about 310,000 compounds, of which about 2,200 (0.71%) showed an effect of 50% or more. Effects have a minus sign here. Some of the results follow.

Target: human ether-à-go-go-related gene (hERG) potassium channel (human, UniProt Q12809)
Assay: primary screen, population patch clamp on CHO cells stably expressing hERG

human ether-à-go-go-related gene (hERG) potassium channel, sequence (Q12809 whole entry, looked up): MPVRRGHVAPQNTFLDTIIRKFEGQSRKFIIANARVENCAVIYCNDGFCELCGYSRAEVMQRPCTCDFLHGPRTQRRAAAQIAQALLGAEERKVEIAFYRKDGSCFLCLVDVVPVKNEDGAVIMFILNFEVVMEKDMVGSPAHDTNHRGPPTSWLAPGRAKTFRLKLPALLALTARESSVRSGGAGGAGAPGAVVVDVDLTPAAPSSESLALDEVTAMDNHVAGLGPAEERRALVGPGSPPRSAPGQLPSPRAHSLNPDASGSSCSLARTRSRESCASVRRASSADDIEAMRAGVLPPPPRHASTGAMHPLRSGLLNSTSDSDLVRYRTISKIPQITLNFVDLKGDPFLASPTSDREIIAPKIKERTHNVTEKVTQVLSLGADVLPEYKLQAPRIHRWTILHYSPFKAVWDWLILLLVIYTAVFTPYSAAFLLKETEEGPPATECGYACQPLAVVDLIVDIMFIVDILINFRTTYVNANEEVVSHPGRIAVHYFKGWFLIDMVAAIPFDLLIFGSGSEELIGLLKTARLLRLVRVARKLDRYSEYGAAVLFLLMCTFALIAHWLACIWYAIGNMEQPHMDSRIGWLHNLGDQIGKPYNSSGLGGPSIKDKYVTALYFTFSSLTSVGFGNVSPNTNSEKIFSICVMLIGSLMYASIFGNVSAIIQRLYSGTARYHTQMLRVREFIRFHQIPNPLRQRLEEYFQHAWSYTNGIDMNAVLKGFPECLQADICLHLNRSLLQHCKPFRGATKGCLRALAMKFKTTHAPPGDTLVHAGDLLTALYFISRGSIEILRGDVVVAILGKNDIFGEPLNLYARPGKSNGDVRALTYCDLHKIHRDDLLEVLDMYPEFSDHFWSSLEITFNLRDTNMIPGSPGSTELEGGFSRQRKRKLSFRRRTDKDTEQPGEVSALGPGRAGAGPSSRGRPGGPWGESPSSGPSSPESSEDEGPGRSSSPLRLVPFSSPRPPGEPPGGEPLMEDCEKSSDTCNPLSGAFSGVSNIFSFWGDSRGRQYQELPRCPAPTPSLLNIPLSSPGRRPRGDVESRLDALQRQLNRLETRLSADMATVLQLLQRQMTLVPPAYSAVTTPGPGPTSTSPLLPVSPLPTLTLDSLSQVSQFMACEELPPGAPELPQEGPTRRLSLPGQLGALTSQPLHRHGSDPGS

Row | Structure (SMILES) | hERG current change (%, negative = inhibition) at 1uM [%]
1 | O=C(N/N=C/c1ccncc1)c1ccccc1OCc1ccc(Br)cc1 | 5.77
2 | CCOC(=O)N1N=C(C)CC1(O)c1ccccc1 (stereo not drawn) | 2.74
3 | CC(C)NC(=O)c1cc2nc(-c3ccco3)cc(C(F)(F)F)n2n1 | 6.23
4 | Cc1nc2cc(NC(=O)Nc3ccc(N4CCOCC4)cc3)ccc2n1C | 11.8
5 | COc1cccc(NC(=O)C(C)Sc2nnc(C3CC3)n2C2CC2)c1 (stereo not drawn) | -1.51
6 | CCCNC(=O)[C@H](Cc1c[nH]c2ccccc12)NC(=O)c1ccccc1Cl | -5.53
7 | Cc1ccc2nc(Cl)c(CN(C(=O)c3cnccn3)C3CCCCC3)cc2c1 | -7.65
8 | O=C(CSc1nc2ccccc2[nH]1)Nc1ccccc1F | 6.04
9 | COCCN1C(=O)NC(=O)/C(=C\c2ccc(F)cc2)C1=O | 18.9
10 | Cc1ccc(NC(=O)c2cccc(C(=O)OC(C)C)n2)c(Br)c1 | -1.63
11 | CCOC(=O)c1c(C)n(Cc2ccccc2)c2ccc(OCC(O)CN3C(=O)CNC3=O)cc12 (stereo not drawn) | 9.17
12 | Cc1cc(C)c(C(=O)Cn2nc(C(=O)O)c3ccccc3c2=O)cc1C | 13.3
13 | Cc1noc(NS(=O)(=O)c2ccc(NC(=O)COc3ccc(Cl)cc3Cl)cc2)c1C | -6.64
14 | CCC(=O)Nc1ccc(S(=O)(=O)N2CCCCC2)cc1OC | -3.55
15 | CC(=O)c1cn(C)c(=O)c2ccccc12 | 15.5
16 | CN(C)S(=O)(=O)c1ccc(C(=O)OCc2nnc(-c3ccccc3)o2)cc1 | 11.7
17 | Cc1ccc(-n2[nH]c(=O)c(-c3ccccn3)c2C)cc1 | 10.2
18 | Cc1nn(CC(=O)Nc2ccc(S(N)(=O)=O)cc2)c(=O)c2ccccc12 | 8.36
19 | COC1=C(c2ccccc2)C(=O)c2ccccc2C1=O | 4.18
20 | c1ccc(-c2ccnc3ncnn23)nc1 | 10.2
21 | CN(CC(=O)Nc1ccc(Cl)c(C(F)(F)F)c1)C(=O)CC1Sc2ccccc2NC1=O (stereo not drawn) | 3.84
22 | O=C1CC(c2ccccc2)Oc2cc(O)cc(O)c21 (stereo not drawn) | 11.1
23 | COc1cccc(-n2c(COc3ccc(C)cc3)nnc2SCC(N)=O)c1 | 9.18

Row | Structure (SMILES) | hERG current change (%, negative = inhibition) at 1uM [%]
24 | Cc1ccc(CNC(=O)C2CC(c3ccccc3[N+](=O)[O-])=NO2)o1 (stereo not drawn) | 16.2
25 | CC1(C)C(C=C(Cl)Cl)C1C(=O)NC(O)C(=O)c1ccccc1 (stereo not drawn) | 15.6
26 | Cc1ccc(/C=N/NC(=S)NC2CCS(=O)(=O)C2)cc1 (stereo not drawn) | 9.41
27 | C/C(=N\Nc1nccnc1Cl)c1ccc(O)cc1 | 20.2
28 | CCOc1cc(CNCC2CCCN2CC)cc(Cl)c1OC.Cl (stereo not drawn) | 6.02
29 | COc1ccc(Cl)cc1NC(=O)CN(C)C(=O)c1cc(C)oc1C | -0.865
30 | O=c1oc(-c2cccc([N+](=O)[O-])c2)nc2ccccc12 | 14.4
31 | COc1ccc2nc(N=Nc3ccc(O)c4ccccc34)sc2c1 | -0.728
32 | CC(c1ccco1)N(C(=O)Nc1ccc(Cl)cc1)c1ccccn1 (stereo not drawn) | 5
33 | C/C(N)=C(/C#N)C(=O)COC(=O)CCSc1ccccc1Cl | 12.1
34 | CCOc1ccc(S(=O)(=O)N(C)CC(=O)NC2CCCC2)cc1 | 2.85
35 | COCC(C)NC(=S)NC(=O)c1cc(S(=O)(=O)N2CCOCC2)ccc1C (stereo not drawn) | 11.3
36 | CC(OC(=O)/C=C/c1cccs1)C(=O)Nc1ccc(C(N)=O)cc1 (stereo not drawn) | 7.57
37 | CN1CCc2nc(NC(=O)c3cccc(S(=O)(=O)N4CCc5ccccc54)c3)sc2C1 | 8.61
38 | C=CCNC(=S)NNC(=O)COc1cccc(Cl)c1 | -3.39
39 | CCOC(=O)Cn1c(=O)c(-c2ccccc2NCc2ccccc2)nc2ccccc21 | 12.9
40 | COc1ccc(CCN2C(=O)C3C4CC(C5C(C(=O)O)=NOC45)C3C2=O)cc1OC (stereo not drawn) | 18.8
41 | COc1ccccc1CNC(=O)COC(=O)c1sc(C)nc1C | -5.76
42 | CCC(=O)Nc1cccc(C2=NOC3(C2)C[C@H](C(N)=O)N(C(=O)CC#N)C3)c1 (stereo partly drawn) | 9.75
43 | CCCCCn1nc(C(=O)N(CC(C)C)c2c(N)n(CCCC)c(=O)[nH]c2=O)c2ccccc2c1=O | 0.587
44 | COc1ccc2nc(NC(=O)C3CCN(C(=O)c4ccc(F)cc4)CC3)sc2c1 | 6.73
45 | COCCN1C=C(C(=O)OC)C(c2ccc(OC)c(OC)c2)C(C(=O)OC)=C1 | 7.83
